In the supplement of paper PMC9446081:
Hit rate of the full screen: of about 39,000 compounds, about 220 (0.56%) showed activity. The list shows a part of the results.

test system: Escherichia coli K-12 BW25113; assay: relative growth (OD600 normalised to plate interquartile mean) (fraction); higher = less growth inhibition, active = 0.2 or less; details: 50 µM; LB; incubation time: overnight (16-24 h)
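Note: static incubation at 37 °C against the wild-type strain, values averaged over two biological replicates.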

Compound | relative growth
CCC(=O)Nc1ccc2c(c1)C(=O)N(C)C[C@@H](OC)[C@@H](C)CN(C(=O)CN1CCOCC1)[C@@H](C)CO2 | inactive: 0.988
CC(C)NC(=O)N(C)C[C@@H]1Oc2ccc(NC(=O)CCC(F)(F)F)cc2CC(=O)N([C@@H](C)CO)C[C@H]1C | inactive: 0.983
O=c1cc(-c2ccccc2)ss1 | inactive: 0.955
COc1ccc(NC(=O)N(C)C[C@@H]2Oc3c(NC(=O)c4cnccn4)cccc3C(=O)N([C@H](C)CO)C[C@@H]2C)cc1 | inactive: 0.988
CC(=O)N1CCN(c2c(C)cnc3c2c(=O)n(CC(N)=O)c(=O)n3C)CC1 | inactive: 0.994
NCc1c[nH]nc1-c1ccccc1 | inactive: 1
C[C@@H]1CCCCO[C@@H](CN(C)C(=O)Nc2ccc3c(c2)OCO3)[C@H](C)CN([C@@H](C)CO)C(=O)c2cc(NC(=O)Nc3ccccc3)ccc2O1 | inactive: 1.05
C[C@@H]1CN([C@@H](C)CO)C(=O)Cc2cc(NC(=O)NC3CCCCC3)ccc2O[C@H]1CN(C)Cc1ccc(-c2ccccc2)cc1 | inactive: 0.923
COc1ccc(S(=O)(=O)N(C)C[C@@H]2Oc3c(NC(=O)NC(C)C)cccc3C(=O)N([C@H](C)CO)C[C@@H]2C)cc1 | inactive: 0.98
CC(C)CC#Cc1ccc2c(c1)O[C@@H](CN(C)S(=O)(=O)c1cccc(F)c1)[C@@H](C)CN([C@H](C)CO)S2(=O)=O | inactive: 1.03
C[C@@H]1CN([C@@H](C)CO)C(=O)c2cc(NC(=O)Nc3ccc(C(F)(F)F)cc3)ccc2O[C@@H]1CN(C)Cc1ccc(Cl)c(Cl)c1 | inactive: 1.02
C[C@@H]1CN([C@@H](C)CO)S(=O)(=O)c2ccc(C#Cc3ccncc3)cc2O[C@@H]1CN(C)C(=O)Nc1ccc2c(c1)OCO2 | inactive: 0.99
COc1cccc(C#Cc2cnc3c(c2)C(=O)N([C@H](C)CO)C[C@H](C)[C@H](CN(C)C(=O)C2CCC2)O3)c1 | inactive: 1.01
O=C(C[C@H]1CC[C@@H]2[C@H](COC[C@@H](O)CN2C(=O)Nc2ccc(Cl)cc2)O1)NCCc1ccncc1 | inactive: 0.926
Cc1ccc2sc(N(CCCN(C)C)C(=O)c3ccc(S(=O)(=O)N(C)Cc4ccccc4)cc3)nc2c1C | inactive: 0.95
CN(c1ccc(N)cc1[N+](=O)[O-])S(C)(=O)=O | inactive: 1.02
NCc1ccncc1 | inactive: 0.956
C[C@@H]1CN([C@H](C)CO)C(=O)c2cccc(NC(=O)C3CC3)c2O[C@@H]1CN(C)S(=O)(=O)c1ccccc1 | inactive: 1.01
C[C@@H]1CN([C@@H](C)CO)C(=O)c2cc(NS(=O)(=O)c3cn(C)cn3)ccc2O[C@@H](C)CCCCO[C@@H]1CN(C)S(=O)(=O)c1cccs1 | inactive: 1.01
C[C@H](CO)N1C[C@H](C)[C@H](CN(C)C(=O)Nc2ccccc2)Oc2ccc(NC(=O)Cn3cnnn3)cc2C1=O | inactive: 0.995
C[C@H](CO)N1C[C@H](C)[C@@H](CN(C)C(=O)CN(C)C)Oc2cc(C#CCC3CCCC3)ccc2S1(=O)=O | inactive: 0.995

Compound | relative growth
C[C@H](CO)N1C[C@H](C)[C@@H](CN(C)S(=O)(=O)c2cn(C)cn2)Oc2c(NC(=O)NC3CCCCC3)cccc2C1=O | inactive: 1.02
NC(N)=O | inactive: 0.964
C[C@@H]1CN([C@@H](C)CO)S(=O)(=O)c2ccc(C#Cc3ccc(F)cc3)cc2O[C@@H]1CN(C)S(=O)(=O)c1cn(C)cn1 | inactive: 1.04
Cc1c(NC(C)C)c(=O)n(-c2ccccc2)n1C.Cl | inactive: 1.17
COc1ccc(S(=O)(=O)Nc2ccc3c(c2)C(=O)N([C@H](C)CO)C[C@@H](C)[C@H](CN(C)C(=O)Nc2ccc(C(F)(F)F)cc2)OCCCC[C@H](C)O3)cc1 | inactive: 1.01
C[C@H]1CN([C@@H](C)CO)C(=O)c2ccccc2-c2ccccc2CO[C@H]1CN(C)Cc1ccc(Oc2ccccc2)cc1 | inactive: 1.02
Cc1ccc(S(=O)(=O)N(C)C[C@@H]2Oc3c(NS(=O)(=O)c4ccc(F)cc4)cccc3C(=O)N([C@H](C)CO)C[C@H]2C)cc1 | inactive: 1
C[C@@H]1CN([C@H](C)CO)C(=O)c2cc(-c3ccc(C#N)cc3)cnc2O[C@H]1CN(C)C(=O)Nc1ccc(C(F)(F)F)cc1 | inactive: 1.03
COc1ccc(S(=O)(=O)N(C)C[C@@H]2Oc3ccc(NC(=O)CCC(F)(F)F)cc3CC(=O)N([C@@H](C)CO)C[C@H]2C)cc1 | inactive: 1.02
C=C(C)CNc1nc(-c2ccccc2)c(-c2ccccc2)s1 | inactive: 1.01
CNC(=O)C[C@H]1CC[C@H]2[C@@H](COC[C@@H](O)CN2C(=O)Nc2cccc(OC)c2)O1 | inactive: 0.971
COc1ccc(CN(C)C[C@@H]2OCCCC[C@@H](C)Oc3ccc(NC(=O)Nc4ccc(F)cc4)cc3C(=O)N([C@@H](C)CO)C[C@@H]2C)cc1 | inactive: 1.01
C[C@H]1CN([C@@H](C)CO)C(=O)c2cccc(NC(=O)Nc3ccc(C(F)(F)F)cc3)c2O[C@@H]1CN(C)C(=O)NC1CCCCC1 | inactive: 0.783
C[C@@H]1CN([C@H](C)CO)C(=O)c2cccc(NC(=O)c3ccc(-c4nccs4)cc3)c2O[C@@H]1CN(C)Cc1ccccc1 | inactive: 1.02
CCC(=O)Oc1ccc2c(c1)CCC1C2CCC2(C)C1CC(OC(=O)CC)C2OC(=O)CC (configuration not stated) | inactive: 0.779
COc1ccc(CN(C)C[C@@H]2OCCCC[C@H](C)Oc3ccc(NC(=O)c4ccccc4)cc3C(=O)N([C@@H](C)CO)C[C@@H]2C)cc1 | inactive: 0.995
Cc1noc(C)c1S(=O)(=O)Nc1ccc2c(c1)C(=O)N([C@H](C)CO)C[C@@H](C)[C@@H](CN(C)C(=O)NC1CCCCC1)O2 | inactive: 0.997
N#CC(c1ccccc1)(c1ccccc1)c1ccccc1Cl | inactive: 1.01
C=CCNC(=O)[C@H]1[C@@H]2C(=O)O[C@@H](c3ccccc3)[C@@H](c3ccccc3)N2[C@@H](c2ccc(OCCO)cc2)[C@]12C(=O)Nc1ccc(C#CC3=CCCCC3)cc12 | inactive: 1.07
Cc1noc(C)c1S(=O)(=O)Nc1ccc2c(c1)C(=O)N([C@H](C)CO)C[C@@H](C)[C@@H](CN(C)C(=O)NC(C)C)O2 | inactive: 0.995
C[C@H]1CN([C@@H](C)CO)C(=O)c2cc(C#CCN(C)C)cnc2O[C@H]1CN(C)C(=O)Nc1ccccc1F | inactive: 1.02

Compound | relative growth
C[N+](C)(C)CCCC[C@@H]1NC(=O)[C@H]2C[C@@H](C(=O)NCCCCCCNC(=O)CS)[C@@H](c3cccc(OCCO)c3)N2C1=O | inactive: 0.982
CC(C)CC#Cc1ccc2c(c1)O[C@@H](CN(C)C(=O)NC1CCCC1)[C@@H](C)CN([C@@H](C)CO)S2(=O)=O | inactive: 0.937
C[C@H]1CN([C@@H](C)CO)C(=O)c2cccc(NS(=O)(=O)c3cn(C)cn3)c2O[C@H]1CN(C)Cc1ccncc1 | inactive: 1
COc1ccc(S(=O)(=O)Nc2ccc3c(c2)C(=O)N([C@@H](C)CO)C[C@H](C)[C@@H](CN(C)C(=O)Nc2ccc4c(c2)OCO4)OCCCC[C@@H](C)O3)cc1 | inactive: 1.01
Cn1cnc(S(=O)(=O)N[C@H]2C=C[C@H](CC(=O)NCC3CC3)O[C@@H]2CO)c1 | inactive: 1.01
O=C(C[C@H]1C[C@H]2c3cc(NC(=O)NC4CCCC4)ccc3O[C@H]2[C@H](CO)O1)NCc1ccc(-c2ccccc2)cc1 | inactive: 0.999
COc1ccc(/C=C/CN(C/C=C/c2ccc(OC)cc2)CCCNS(=O)(=O)c2cccc3cnccc23)cc1 | inactive: 0.947
C[C@H]1CNCCO1 | inactive: 0.997
O=C(C[C@@H]1CC=CC[C@@H](Cc2ccc(F)cc2)C(=O)OC[C@H](Cc2c[nH]c3ccccc23)NC1=O)NCCO | inactive: 1.02
C[C@@H]1CCCCO[C@H](CN(C)C(=O)Nc2ccc(C(F)(F)F)cc2)[C@@H](C)CN([C@H](C)CO)C(=O)c2cc(NC(=O)Nc3ccc(F)cc3)ccc2O1 | inactive: 0.879
Cn1c([N+](=O)[O-])cnc1COC(N)=O | inactive: 0.98
C[C@H](CO)N1C[C@H](C)[C@H](CN(C)Cc2ccc(O)cc2)OCc2ccccc2-c2c(n(C)c3ccccc23)C1=O | inactive: 0.99
O=C(C[C@@H]1CC[C@H]2[C@@H](COC[C@@H](O)CN2S(=O)(=O)c2ccccc2Cl)O1)NCc1ccccc1Cl | inactive: 1
C[C@@H]1CCCCO[C@@H](CN(C)C(=O)Nc2cccc3ccccc23)[C@H](C)CN([C@@H](C)CO)C(=O)c2cc(NC(=O)Nc3ccccc3)ccc2O1 | inactive: 1.02
COCCCNC(=O)[C@@]1(Sc2ccc(C)cc2)CC(=O)N(Cc2cc(C(F)(F)F)cc(C(F)(F)F)c2)[C@@H]1c1ccc(CO)cc1I | inactive: 1.02
C[C@@H]1CCCCO[C@@H](CN(C)C(=O)Nc2ccc(F)cc2)[C@@H](C)CN([C@H](C)CO)C(=O)c2cc(NS(=O)(=O)c3ccccc3)ccc2O1 | inactive: 1.01
CCNC1=N[C@@H]2[C@@H](O)[C@H](O)[C@@H](CO)O[C@@H]2S1 | inactive: 0.955
COc1ccc(NC(=O)N(C)C[C@H]2OCCCC[C@H](C)Oc3ccc(NS(=O)(=O)c4ccc(C)cc4)cc3C(=O)N([C@H](C)CO)C[C@@H]2C)cc1 | inactive: 1.05
C[C@@H]1CN([C@@H](C)CO)C(=O)c2cc(NS(=O)(=O)c3cccs3)ccc2O[C@@H](C)CCCCO[C@H]1CN(C)C(=O)Nc1ccc(F)cc1 | inactive: 1.01
C[C@H]1CN([C@@H](C)CO)S(=O)(=O)c2ccc(C#CCN(C)C)cc2O[C@@H]1CN(C)Cc1ccc2c(c1)OCO2 | inactive: 1.02
